From paper PMC4336329 (PLoS ONE, 2015) come the findings set out here.

Screen size: about 310,000 compounds; about 2,200 (0.71%) showed an effect of 50% or more. Effects have a minus sign here. This is one part of the list.

The target in the test is human ether-à-go-go-related gene (hERG) potassium channel (human, UniProt Q12809). Description: primary screen, population patch clamp on CHO cells stably expressing hERG.
human ether-à-go-go-related gene (hERG) potassium channel, sequence (Q12809 whole entry, looked up): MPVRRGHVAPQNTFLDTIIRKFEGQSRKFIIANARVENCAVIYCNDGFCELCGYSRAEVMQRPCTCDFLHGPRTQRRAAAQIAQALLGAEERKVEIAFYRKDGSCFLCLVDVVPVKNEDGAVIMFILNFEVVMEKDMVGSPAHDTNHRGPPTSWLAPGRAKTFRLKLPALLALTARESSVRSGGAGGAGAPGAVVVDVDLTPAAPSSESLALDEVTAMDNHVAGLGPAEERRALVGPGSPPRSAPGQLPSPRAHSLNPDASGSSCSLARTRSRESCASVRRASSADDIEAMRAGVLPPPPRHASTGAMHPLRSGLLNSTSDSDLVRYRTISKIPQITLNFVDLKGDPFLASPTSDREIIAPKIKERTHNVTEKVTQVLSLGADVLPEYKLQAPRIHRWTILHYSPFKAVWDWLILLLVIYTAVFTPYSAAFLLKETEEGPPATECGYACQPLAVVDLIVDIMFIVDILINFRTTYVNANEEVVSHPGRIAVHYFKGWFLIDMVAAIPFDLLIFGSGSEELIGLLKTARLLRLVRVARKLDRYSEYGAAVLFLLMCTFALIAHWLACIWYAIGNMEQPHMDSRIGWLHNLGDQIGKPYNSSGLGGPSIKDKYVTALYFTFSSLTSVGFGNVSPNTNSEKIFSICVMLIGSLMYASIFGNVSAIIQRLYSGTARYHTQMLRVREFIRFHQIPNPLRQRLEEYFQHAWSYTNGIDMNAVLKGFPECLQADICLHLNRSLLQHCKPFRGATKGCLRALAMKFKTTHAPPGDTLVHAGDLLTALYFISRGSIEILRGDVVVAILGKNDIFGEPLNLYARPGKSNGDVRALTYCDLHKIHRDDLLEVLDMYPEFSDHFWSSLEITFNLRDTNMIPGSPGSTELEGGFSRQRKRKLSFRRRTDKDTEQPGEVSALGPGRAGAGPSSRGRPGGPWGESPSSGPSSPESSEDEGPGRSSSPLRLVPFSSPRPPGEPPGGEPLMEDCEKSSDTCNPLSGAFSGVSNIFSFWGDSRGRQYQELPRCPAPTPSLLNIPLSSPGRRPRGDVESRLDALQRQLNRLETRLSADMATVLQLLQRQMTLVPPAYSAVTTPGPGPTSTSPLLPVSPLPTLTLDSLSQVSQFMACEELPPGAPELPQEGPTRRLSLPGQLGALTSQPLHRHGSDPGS
Turning to `COc1cccc(C(=O)N2CCN(Cc3nc(CC4CC4)no3)CC2)c1`, the “hERG current change (%, negative = inhibition) at 1uM” value was determined as 7.76%. Turning to `COc1ccc(/C=C/CN2CCCC(C(=O)c3ccc(OC)c(F)c3)C2)cc1` (stereo not drawn), the “hERG current change (%, negative = inhibition) at 1uM” value is -47.1%. Take `CCn1c(-c2ccccc2Cl)nn(CC(=O)NCCc2ccccc2)c1=S`: the “hERG current change (%, negative = inhibition) at 1uM” value was 7.85%.

As for `O=C(c1ccc([N+](=O)[O-])cc1)N(c1ccccn1)c1ccccn1`, the “hERG current change (%, negative = inhibition) at 1uM” value was 13.1%. The figure for `CCCCn1c(=O)c(C=Nc2ccc(Cl)cc2)c(O)n(Cc2ccco2)c1=O` is 6.55%; for `Cc1cccc(N2CCN(C(=O)c3c(C)nn(Cc4ccccc4Cl)c3C)CC2)c1C` it is 16.9%.

For `O=C1CC(c2ccncc2)c2cc3c(cc2N1)OCCO3` (stereo not drawn), the “hERG current change (%, negative = inhibition) at 1uM” value stood at 9.41%. `O=C(NCC1CCCO1)c1ccc(/C=N/O)nc1` (stereo not drawn): the “hERG current change (%, negative = inhibition) at 1uM” value was found to be 5.39%. On to `CC(=O)N(C)c1ccc(NC(=S)Nc2ccccc2)cc1`, for which the “hERG current change (%, negative = inhibition) at 1uM” value is given as 8.15%. Next, `COc1cc(O)c(CCC(=O)c2cc(OC)c(OC)c(OC)c2)c(OC)c1`: 14.1%; `Cc1nc2sc(C(=O)Nc3ccccc3Cc3ccccc3)c(C)c2c(=O)[nH]1`: 9.44%; `CCN(CC)c1ccc2c(Cl)c(Br)c(=O)oc2c1`: 8.55%.

Turning to `CCCn1c(SCC(=O)N2c3ccccc3Sc3ccccc32)nc2ccccc21`, the “hERG current change (%, negative = inhibition) at 1uM” value is given as 18.5%.

Take `O=C(Nc1ccc(Cl)cn1)c1ccc2[nH]c(=O)c(=O)[nH]c2c1`: the “hERG current change (%, negative = inhibition) at 1uM” value was determined as 13.2%. Turning to `COc1cccc(-c2nc(NCc3ccccc3)c3ccccc3n2)c1O`, the “hERG current change (%, negative = inhibition) at 1uM” value stood at 5.3%. With `COc1ccc(-c2cc(C(F)(F)F)nc(N)n2)cc1`, the “hERG current change (%, negative = inhibition) at 1uM” value is on record as 13.7%. Next, `S=c1[nH]nc(-c2ccc(Cl)cc2Cl)n1-c1ccc(Cl)cc1`: 19.6%; `COc1cccc(NC(=O)CSCc2cc(=O)n3nc(C4CC4)sc3n2)c1`: 12.1%. As to `O=C(NC12CC3CC(CC(C3)C1)C2)c1ccc([N+](=O)[O-])o1`, the “hERG current change (%, negative = inhibition) at 1uM” value is recorded as 17%. Consider `O=C(NN=C1C2CC3CC(C2)CC1C3)c1cccc(S(=O)(=O)N2CCOCC2)c1`, for which the “hERG current change (%, negative = inhibition) at 1uM” value was 10.7%. Regarding `O=C(c1ccccc1NS(=O)(=O)c1ccc(Br)s1)N1CCOCC1`, the “hERG current change (%, negative = inhibition) at 1uM” value is given as -1.7%.

Regarding `CCn1cc(C(=O)N2CCN(c3ccccc3OC)CC2)c2cc(OC)c(OC)cc2c1=O`, the “hERG current change (%, negative = inhibition) at 1uM” value is 13%. Turning to `CCCOc1c(Cl)cc(C(=O)Nc2ccc3c(c2)OCO3)cc1OCC`, the “hERG current change (%, negative = inhibition) at 1uM” value came out at 8.19%. The figure for `O=C(Cn1cc(C(F)(F)F)cc(Cl)c1=O)Nc1cccc(Cl)c1` is 22.2%; for `Cc1ccc(-c2nnc(Nc3ccc4c(c3)OCO4)c3ccccc23)cc1S(=O)(=O)NCCO` it is 4.31%. Turning to `CC1=C(C(=O)OC(C)C)C(c2ccc(O)cc2)NC(=O)N1` (stereo not drawn), the “hERG current change (%, negative = inhibition) at 1uM” value turned out to be 14%. Consider `CN(C)c1ccc(C(CC(=O)c2ccccc2)C2CCCCC2=O)cc1` (stereo not drawn), for which the “hERG current change (%, negative = inhibition) at 1uM” value is reported as 2.38%. In the case of `COc1ccc([N+](=O)[O-])cc1NC(=O)Cc1noc2ccc(C)cc12`, the “hERG current change (%, negative = inhibition) at 1uM” value worked out at 8.07%.

`COc1ccccc1C(=O)NCCC(=O)NCc1cccnc1`: the “hERG current change (%, negative = inhibition) at 1uM” value came to 9.87%. Regarding `CC(C)CNc1c2c(nc3ccccc13)CCC2.Cl`, the “hERG current change (%, negative = inhibition) at 1uM” value was -33.5%. Consider `Cc1c(/C=N\NC(=O)C2(C)CC2(Cl)Cl)cnn1C` (stereo not drawn), for which the “hERG current change (%, negative = inhibition) at 1uM” value was found to be 9.68%. Next, `C=CCNC(=O)c1sc(-c2ccccc2)nc1C`: 0.876%; `CCOc1ccc(S(=O)(=O)N2CCN(C(=O)C3CCC3)CC2)cc1`: 12.2%; `Cc1c(OCC(=O)N2C[C@H]3C[C@@H](C2)c2cccc(=O)n2C3)ccc2c3c(c(=O)oc12)CCC3`: 9.66%. On to `CCOC(=O)/C(CCCN(CC)CC)=N\O.CI`, for which the “hERG current change (%, negative = inhibition) at 1uM” value came to 12.6%.

Turning to `C/C(=N\NC(=O)c1ccc(CSc2cccc3cccnc23)cc1)C1CCCCC1`, the “hERG current change (%, negative = inhibition) at 1uM” value amounted to 6.98%. Next, `C=CCn1c(C)c(C(C)=O)c(N2CCOCC2)nc1=S`: 13.8%; `COc1ccc(NC(=S)N2CCCC(c3nc4ccc(C)cc4[nH]3)C2)cc1` (stereo not drawn): -7.53%; `COc1ccc(C(C)(C)C)cc1NC(=O)COC(=O)c1nc2nccc(C)n2n1`: 6.73%.

Turning to `Cc1ccc(-n2nnc3c(=O)n(CC(=O)c4ccccc4)cnc32)cc1`, the “hERG current change (%, negative = inhibition) at 1uM” value is reported as 6.81%. With `COc1ccc(CCNC(=O)COC(=O)c2cc(=O)c3ccccc3o2)cc1`, the “hERG current change (%, negative = inhibition) at 1uM” value worked out at 5.65%. On to `COc1ccc(-n2nc(C(=O)N3CCCCC3)c(C)c(C#N)c2=O)cc1`, for which the “hERG current change (%, negative = inhibition) at 1uM” value turned out to be 10.7%. The figure for `COc1ccc(Nc2nnc(SCC(=O)/C=C3/N(C)c4ccccc4C3(C)C)s2)cc1` is 7.06%; for `O=S(=O)(NCC(c1cccnc1)N1CCN(Cc2ccccc2)CC1)c1cc(F)ccc1F` (stereo not drawn) it is -42.5%; for `CSCCC(NC(=O)c1ccccc1)C(=O)N1CC=C(c2ccccc2)CC1` (stereo not drawn) it is 7.88%.

Consider `COc1cc(C2C3C(=O)N(c4ccccc4)C(=O)C3ON2c2ccccc2)cc(OC)c1OC` (stereo not drawn), for which the “hERG current change (%, negative = inhibition) at 1uM” value was -1.58%.

For the compound `CCC(CC)N1CCN(CC2CC=CCC2)CC1.O=C(O)C(=O)O` (stereo not drawn), the “hERG current change (%, negative = inhibition) at 1uM” value stood at 10.9%. On to `CC(=O)c1c(C)[nH]c(C(=O)Nc2ccc(C)cc2Br)c1C`, for which the “hERG current change (%, negative = inhibition) at 1uM” value stood at 19.3%. As to `COC(=O)[C@]1(C)CCC[C@@]2(C)C3CC[C@@]4(C)C[C@]3(CC[C@H]12)C[C@H]4O` (stereo partly drawn), the “hERG current change (%, negative = inhibition) at 1uM” value is -1.87%. On to `CCCN1CCN(C(=S)Nc2ccc(SC(F)F)cc2)CC1`, for which the “hERG current change (%, negative = inhibition) at 1uM” value is listed as -11.5%.

In the case of `O=C(N/N=C/c1ccc(Br)o1)/C(=C/c1ccc([N+](=O)[O-])cc1)NC(=O)c1ccccc1`, the “hERG current change (%, negative = inhibition) at 1uM” value was -31.9%. As to `Cc1cnccc1CN(C)C(=O)C1CCC(=O)N(Cc2ccccc2F)C1` (stereo not drawn), the “hERG current change (%, negative = inhibition) at 1uM” value came to 4.03%. With `O=C(OCC(=O)c1ccc(Cl)s1)c1ccccn1`, the “hERG current change (%, negative = inhibition) at 1uM” value is listed as 12.6%. As to `Cc1cc(C)c(NC(=S)N(CCN(C)C)C(C)c2cccnc2)c(C)c1` (stereo not drawn), the “hERG current change (%, negative = inhibition) at 1uM” value was determined as 4.38%.

`Cl.O=C(COc1ccccc1F)NC1CCN(Cc2ccccc2)CC1`: the “hERG current change (%, negative = inhibition) at 1uM” value is recorded as -3.6%.

For `Cc1ccc(NC(=O)CCC(=O)NNC(=O)c2ccccc2)c(C)c1`, the “hERG current change (%, negative = inhibition) at 1uM” value is reported as 14%. In the case of `NC(=O)c1ccc2c(c1)OCCO2`, the “hERG current change (%, negative = inhibition) at 1uM” value is recorded as 12.5%. Consider `CC(C)Oc1ccccc1C1CC(=O)Nc2cc3c(cc21)OCCO3` (stereo not drawn), for which the “hERG current change (%, negative = inhibition) at 1uM” value is -7.12%.

With `O=C(Nc1ccc(NC(=O)c2ccccc2Cl)nc1)c1ccco1`, the “hERG current change (%, negative = inhibition) at 1uM” value came to 7.62%. Next, `CCCn1c(-c2ccc(F)cc2)n[nH]c1=S`: 5.3%; `NC(=O)COC(=O)c1ccc(Oc2ccccc2)cc1`: 4.12%; `O=C(CCC(=O)N1CCN(c2ccc(O)cc2)CC1)c1ccc(Br)cc1`: -21.9%. `Cn1nc(C(=O)Nc2ccc(S(=O)(=O)Nc3ncccn3)cc2)ccc1=O`: the “hERG current change (%, negative = inhibition) at 1uM” value was 13.5%. `C=CCN1C(=O)C(CC(=O)Nc2ccccc2)S/C1=N/c1nccs1` (stereo not drawn): the “hERG current change (%, negative = inhibition) at 1uM” value was 4.41%. With `Cc1ccc2c(Cl)cc(Cl)c(OCC(=O)NC3CCS(=O)(=O)C3)c2n1` (stereo not drawn), the “hERG current change (%, negative = inhibition) at 1uM” value is reported as -6.16%. On to `Clc1ccc(N2CCNCC2)nn1`, for which the “hERG current change (%, negative = inhibition) at 1uM” value was 13.7%. Regarding `CCOC(=O)CSc1nnc(CNc2cccc(Cl)c2)n1C`, the “hERG current change (%, negative = inhibition) at 1uM” value was determined as 10.7%. On to `Cc1nnsc1NC(=O)OCc1ccc(C(C)(C)C)cc1`, for which the “hERG current change (%, negative = inhibition) at 1uM” value is 2.12%.

In the case of `O=C(NC(=S)N1CCCc2ccccc21)c1ccc([N+](=O)[O-])cc1`, the “hERG current change (%, negative = inhibition) at 1uM” value amounted to 4.51%. Regarding `O=C(CSc1nnc(COc2ccccc2F)n1-c1ccccc1)NCc1ccco1`, the “hERG current change (%, negative = inhibition) at 1uM” value is reported as 7.55%. As to `COc1ccc(NC(=O)CSCC(=O)NCCc2ccccn2)cc1`, the “hERG current change (%, negative = inhibition) at 1uM” value worked out at 13.4%. Turning to `CC(C)Oc1ccc(/C=C(/NC(=O)c2ccccc2)C(=O)NCCC(=O)O)cc1`, the “hERG current change (%, negative = inhibition) at 1uM” value is listed as 11.5%.

Turning to `COc1ccc(N2CCN(C(=O)CSc3nc4c(c(=O)n(C)c(=O)n4C)n3C(C)C)CC2)cc1`, the “hERG current change (%, negative = inhibition) at 1uM” value is recorded as -14.2%. Consider `Cc1ccccc1NC(=O)C1CCCN(c2ncnc3onc(-c4ccc(F)cc4)c23)C1` (stereo not drawn), for which the “hERG current change (%, negative = inhibition) at 1uM” value stood at 16.3%. Take `COc1ccc2c(=O)c(-c3ccc(OC)c(OC)c3)coc2c1`: the “hERG current change (%, negative = inhibition) at 1uM” value was -6.6%. For `CCOC(=O)c1nc(Nc2cc(C)cc(C)c2)c2ccccc2n1`, the “hERG current change (%, negative = inhibition) at 1uM” value is 11.2%. For the compound `O=C(Cn1c(NCCO)nc2ccccc21)NCCc1ccccc1`, the “hERG current change (%, negative = inhibition) at 1uM” value is reported as 15.2%. Next, `O=C1c2ccccc2C(=O)N1CCCCN(C(=O)c1ccco1)c1ccc(Cl)cc1`: -13.3%; `Br.Nc1ncc([N+](=O)[O-])cc1Br`: 14.3%; `FC(F)(F)c1cccc(-c2ccc(-c3csnn3)o2)c1`: 9.16%. Next, `COc1ccc(CSc2nnc(C)s2)cc1F`: 7.9%. As for `Cc1ccc2nc(NC(=O)CSCc3ccccc3)sc2c1`, the “hERG current change (%, negative = inhibition) at 1uM” value was found to be 4.96%.

As for `CCNC(=O)NC(=O)CSc1cccc(C(F)(F)F)c1`, the “hERG current change (%, negative = inhibition) at 1uM” value is -0.951%.

In the case of `CC1S/C(=N/N=C/c2ccco2)N(Cc2ccc(F)cc2)C1=O` (stereo not drawn), the “hERG current change (%, negative = inhibition) at 1uM” value is 14.7%. Take `O=C(Nc1nnc(S(=O)(=O)N2CCN(c3ccc(F)cc3)CC2)s1)c1ccccc1`: the “hERG current change (%, negative = inhibition) at 1uM” value worked out at 11.5%. Next, `N#Cc1ccccc1NC(=O)CN1CC=C(c2ccccc2)CC1`: 7.73%; `CCC(C)c1ccc(NC(=O)c2cccs2)cc1` (stereo not drawn): 1.88%. The figure for `O=c1[nH]c(=O)n(CCc2ccc(F)cc2)c(O)c1C=NCCCN1CCOCC1` is 1.65%; for `CCOC(=O)C1=C(C)NC(SCC(=O)Nc2nc(C)cs2)=C(C#N)C1c1cccs1` (stereo not drawn) it is 9.33%. As for `CC1CCCN(CCOc2ccc3ccccc3c2Br)C1.O=C(O)C(=O)O` (stereo not drawn), the “hERG current change (%, negative = inhibition) at 1uM” value is -6.04%.
